{
  "source": "patent US20150079000A1",
  "about": "“Labelled Quinoxaline Derivatives as Multimodal Radiopharmaceuticals and Their Precursors” (INSTITUT NATIONAL DE LA SANTET DE LA RECHERCHE MEDICALE, priority 2012, published 2015)",
  "tested_on": "B16 murine melanoma tumours",
  "assay": "Ex vivo biodistribution study for compound [125I](1)",
  "assay_type": "in vivo, C57BL/6J mice",
  "experimental": "Twenty four B16BL6 primary melanoma bearing mice were intravenously injected with 2.2 MBq of [^1251]1 and sacrificed 1 h, 3 h, 6 h, 24 h, 72 h and 10 days after tracer injection (n=4/time point). Tumours and major organs and tissues were promptly excised, harvested, weighted and their radioactivity counted using a calibrated γ-counter with a […] energy window. After radioactive decay correction, results were expressed as percentage of injected dose per gram of tissue (% ID/g).",
  "note": "The source gives many values for each of these; only a part stands here.",
  "data": [
    {"smiles": "CCN(CCNC(=O)c1cnc2cc([125I])ccc2n1)CCOCCOCCOCCF", "note": "[[^125I](1)]", "values": [
      {"measurement": "% ID/g Eyes", "setting": "1 h p.i.", "value": "15.01 ± 4.84", "unit": "% ID/g"},
      {"measurement": "% ID/g Tumour", "setting": "1 h p.i.", "value": "11.99 ± 3.52", "unit": "% ID/g"},
      {"measurement": "% ID/g Eyes", "setting": "3 h p.i.", "value": "15.48 ± 2.57", "unit": "% ID/g"},
      {"measurement": "% ID/g Tumour", "setting": "3 h p.i.", "value": "17.69 ± 1.10", "unit": "% ID/g"},
      {"measurement": "% ID/g Eyes", "setting": "6 h p.i.", "value": "17.40 ± 2.21", "unit": "% ID/g"},
      {"measurement": "% ID/g Tumour", "setting": "6 h p.i.", "value": "12.04 ± 4.39", "unit": "% ID/g"},
      {"measurement": "% ID/g Eyes", "setting": "24 h p.i.", "value": "20.30 ± 6.08", "unit": "% ID/g"},
      {"measurement": "% ID/g Tumour", "setting": "24 h p.i.", "value": "10.47 ± 3.22", "unit": "% ID/g"},
      {"measurement": "% ID/g Blood", "setting": "72 h p.i.", "value": "0.03 ± 0.01", "unit": "% ID/g"},
      {"measurement": "% ID/g Eyes", "setting": "72 h p.i.", "value": "14.87 ± 1.18", "unit": "% ID/g"},
      {"measurement": "% ID/g Tumour", "setting": "72 h p.i.", "value": "8.74 ± 0.38", "unit": "% ID/g"},
      {"measurement": "% ID/g Blood", "setting": "10 d p.i.", "value": "0.00 ± 0.00", "unit": "% ID/g"},
      {"measurement": "% ID/g Eyes", "setting": "10 d p.i.", "value": "9.97 ± 2.24", "unit": "% ID/g"},
      {"measurement": "% ID/g Tumour", "setting": "10 d p.i.", "value": "1.20 ± 0.54", "unit": "% ID/g"}
    ]}
  ]
}
